# Data taken from the supplement of paper PMC8728848.
# Some of the results follow.
# Assays:
# Assay in all cases: glycan array binding signal (z-score within array); higher = stronger binding
# Conditions in all cases: glycan notation: IUPAC condensed, linker removed; mutation: E227G
# Gal(a1-3)Gal(b1-4)GlcNAc = biological target: Gal(a1-3)Gal(b1-4)GlcNAc
# In short: (§1)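 Columns mapping to the same glycan were averaged after glycan names were converted to IUPAC-condensed notation. The data come from 3228 arrays in the Consortium for Functional Glycomics database, limited to those with an available protein sequence. Binding is reported as a within-array Z-score averaged across arrays of one protein sequence and across linkers.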
# [1] = biological target: Gal(a1-3)Gal(b1-4)GlcNAc(b1-2)Man
# In short: as §1
# [2] = biological target: Gal(a1-3)Gal(b1-4)GlcNAc(b1-2)Man(a1-3)[Gal(a1-3)Gal(b1-4)GlcNAc(b1-2)Man(a1-6)]Man(b1-4)GlcNAc(b1-4)GlcNAc
# In short: as §1
# [3] = biological target: Gal(a1-3)Gal(b1-4)GlcNAc(b1-3)GalNAc
# In short: as §1
# [4] = biological target: Gal(a1-3)Gal(b1-4)GlcNAc(b1-6)GalNAc
# In short: as §1
# [5] = biological target: Gal(a1-3)Gal(b1-4)[Fuc(a1-3)]GlcNAc
# In short: as §1
# [6] = biological target: Gal(a1-3)Gal(b1-4)[Fuc(a1-3)]GlcNAc(b1-2)Man(a1-3)[Gal(a1-3)Gal(b1-4)[Fuc(a1-3)]GlcNAc(b1-2)Man(a1-6)]Man(b1-4)GlcNAc(b1-4)GlcNAc
# In short: as §1
# Gal(a1-3)GalNAc = biological target: Gal(a1-3)GalNAc
# In short: as §1
# [7] = biological target: Gal(a1-3)[Gal(a1-4)]Gal(b1-4)GlcNAc
# In short: as §1
# [8] = biological target: Gal(a1-4)Gal(b1-3)GlcNAc(b1-2)Man(a1-3)[Gal(a1-4)Gal(b1-3)GlcNAc(b1-2)Man(a1-6)]Man(b1-4)GlcNAc(b1-4)GlcNAc
# In short: as §1
# Gal(a1-4)Gal(b1-4)Glc = biological target: Gal(a1-4)Gal(b1-4)Glc
# In short: as §1
# Gal(a1-4)Gal(b1-4)GlcNAc = biological target: Gal(a1-4)Gal(b1-4)GlcNAc
# In short: as §1
# [9] = biological target: Gal(a1-4)Gal(b1-4)GlcNAc(b1-2)Man(a1-3)[Gal(a1-4)Gal(b1-4)GlcNAc(b1-2)Man(a1-6)]Man(b1-4)GlcNAc(b1-4)GlcNAc
# In short: as §1
# [10] = biological target: Gal(a1-4)Gal(b1-4)GlcNAc(b1-3)Gal(b1-4)Glc
# In short: as §1
# Gal(a1-4)GlcNAc = biological target: Gal(a1-4)GlcNAc
# In short: as §1
# Gal(a1-6)Glc = biological target: Gal(a1-6)Glc
# In short: as §1
# Gal(b1-2)Gal = biological target: Gal(b1-2)Gal
# In short: as §1
# Gal(b1-3)Gal = biological target: Gal(b1-3)Gal
# In short: as §1
# Gal(b1-3)Gal(b1-4)GlcNAc = biological target: Gal(b1-3)Gal(b1-4)GlcNAc
# In short: as §1
# Gal(b1-3)GalNAc = biological target: Gal(b1-3)GalNAc
# In short: as §1
# [11] = biological target: Gal(b1-3)GalNAc(a1-3)[Fuc(a1-2)]Gal(b1-4)Glc
# In short: as §1
# [12] = biological target: Gal(b1-3)GalNAc(a1-3)[Fuc(a1-2)]Gal(b1-4)GlcNAc
# In short: as §1
# Gal(b1-3)GalNAc(b1-3)Gal = biological target: Gal(b1-3)GalNAc(b1-3)Gal
# In short: as §1
# [13] = biological target: Gal(b1-3)GalNAc(b1-3)Gal(a1-4)Gal(b1-4)Glc
# In short: as §1
# [14] = biological target: Gal(b1-3)GalNAc(b1-4)Gal(b1-4)Glc
# In short: as §1
# [15] = biological target: Gal(b1-3)GalNAc(b1-4)[Neu5Ac(a2-3)]Gal(b1-4)Glc
# In short: as §1
# Gal(b1-3)GlcNAc = biological target: Gal(b1-3)GlcNAc
# In short: as §1
# [16] = biological target: Gal(b1-3)GlcNAc(a1-3)Gal(b1-4)GlcNAc
# In short: as §1
# [17] = biological target: Gal(b1-3)GlcNAc(a1-6)Gal(b1-4)GlcNAc
# In short: as §1
# Gal(b1-3)GlcNAc(b1-2)Man = biological target: Gal(b1-3)GlcNAc(b1-2)Man
# In short: as §1
binder,measurement,setting,value
"Epa1-NP-mutant-E227G (Candida glabrata), Q6VBJ0 (protein) MILNPALFLNKCVCIYTTLILLLLTNGGYATSSNDISLASKDPTTFPLGCSPDITTPKKGLSMELYSYDFRKKGSYPCWDAAYLDPNYPRTGYKSHRLLAKVDGVTGNINFYYHATKGCTPQLGHLPASYNYPKPLTMTNFTMLLYGYFRPKVTGFHTFTISADDLLFVNFGAGNAFDCCRRDSSADHFGNYQAYAIWGSKTAKDELTVHLDAGVYYPIRLFYNNRGYDGALSFTFKTESNENTVSDFSEYFFSLDDTEEGCPGLISYDSSCASVKTSKIIGIDYHTETPNENLVPITKTIYHLGIPCTGTTTTPLCGSGFYDPLANKCVTINTSSTSSVTKTTSHTTSKEVSFHSSISSQKTLIPKSIPSPYGPIKSQSIPTEMETSSEISSSEYAFSDVISTPSHSPYTKKHSSLNSSSYTSTVIHSLTSYSISQGIFSTSLSEQNITSKSSTDKFSTATSMSNNITQSSIIISQFSTNNENYTTTSMHTSSDKISTETLNNSISTTTSILFSNSSTILKNNTTIISSDKDTHYHPVNPTIVCSTNKTEIICASITQPSISNSNNHWSSSVLKFNSTTVRSTLPSSAGSNETSINVPFSSSTESNTSTSSTSTSNSKMVRSTLPSSAGSNETSISVPFSSSTESNTSTSSTSTSNSKMVRSTLPSSAGSNETSINVPFSSSTESNTSTSSTSTSNSKTVRSTPFSSAGIIMTSLSQRNNKSASSYASSNSKCYNTADSCRKVHSTPSYLLTSSYTSEGVDYDCSLVSTKLKINDTNCVNNKHTTKSCLKTSVTTTIPTLEIKTARKSSSNTIGLHSYPTSSPNKSISSAPIIGYISSFKTIKTASPSYQTSDLTTITTITSLNNPGSTAVENTHESNDKSRKTSSNDISSKHSVIKETKDAVESSNKSHQTNTLKCSSIIIASSSHNSYESLGGTTLTLTLSKVYSPQNNDTLPFLEISEVNPSRTVLPESSKMMQYLTSTEERNKTARNTIATNIVSISTFHFEGEGNAIRMGYTQLLLMLIGIIVMNIGT",glycan array binding signal (z-score),Gal(a1-3)Gal(b1-4)GlcNAc,-0.275
same,glycan array binding signal (z-score),[1],-0.269
same,glycan array binding signal (z-score),[2],-0.18
same,glycan array binding signal (z-score),[3],-0.128
same,glycan array binding signal (z-score),[4],-0.268
same,glycan array binding signal (z-score),[5],-0.329
same,glycan array binding signal (z-score),[6],-0.099
same,glycan array binding signal (z-score),Gal(a1-3)GalNAc,-0.194
same,glycan array binding signal (z-score),[7],0.011
same,glycan array binding signal (z-score),[8],-0.089
same,glycan array binding signal (z-score),Gal(a1-4)Gal(b1-4)Glc,-0.132
same,glycan array binding signal (z-score),Gal(a1-4)Gal(b1-4)GlcNAc,-0.143
same,glycan array binding signal (z-score),[9],-0.093
same,glycan array binding signal (z-score),[10],-0.225
same,glycan array binding signal (z-score),Gal(a1-4)GlcNAc,-0.029
same,glycan array binding signal (z-score),Gal(a1-6)Glc,-0.19
same,glycan array binding signal (z-score),Gal(b1-2)Gal,-0.17
same,glycan array binding signal (z-score),Gal(b1-3)Gal,1.03
same,glycan array binding signal (z-score),Gal(b1-3)Gal(b1-4)GlcNAc,1.84
same,glycan array binding signal (z-score),Gal(b1-3)GalNAc,1.39
same,glycan array binding signal (z-score),[11],0.235
same,glycan array binding signal (z-score),[12],0.409
same,glycan array binding signal (z-score),Gal(b1-3)GalNAc(b1-3)Gal,0.43
same,glycan array binding signal (z-score),[13],0.093
same,glycan array binding signal (z-score),[14],4.13
same,glycan array binding signal (z-score),[15],0.479
same,glycan array binding signal (z-score),Gal(b1-3)GlcNAc,0.47
same,glycan array binding signal (z-score),[16],-0.276
same,glycan array binding signal (z-score),[17],-0.062
same,glycan array binding signal (z-score),Gal(b1-3)GlcNAc(b1-2)Man,0.187
